{
  "source": "the supplement of paper PMC11417369",
  "note": "The list shows a part of the results.",
  "data": [
    {"tested_on": "PfHDP1 homeodomain (GST-tagged)", "assay": "gcPBM binding intensity (ln(normalized median fluorescence intensity)); higher = stronger DNA binding", "how_it_was_run": "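The highest Masliner-normalised natural-log median intensity across replicate spots of either probe orientation is reported as binding intensity. GST-tagged P. falciparum DNA-binding domains expressed in E. coli were applied for 1 h to an Agilent 4 × 180k array of primer-extended double-stranded 36-bp intergenic genomic probes plus negative controls, and bound protein was detected with Alexa488 anti-GST antibody and scanned at 488 nm.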", "values": [
      {"sequence": "ACGGATTAAAAAATGTGTACGCACAAAAAAAAAAAT [XGTACX_site8259]", "gcPBM binding intensity (ln)": 7.14},
      {"sequence": "TACGAAATCATATGTACACACACATATATATATATA [CACACA_site5216]", "gcPBM binding intensity (ln)": 9.26},
      {"sequence": "TAAAATTAAACAAAAAAAAAGAAAAAAAAAAAAAAG [CACACA_negctrl_site1098]", "gcPBM binding intensity (ln)": 5.92},
      {"sequence": "CTCCATATTAGACACACACACAAATGAAAAAAATAT [CACACA_site7420]", "gcPBM binding intensity (ln)": 6.99},
      {"sequence": "TGAACATACATCAAAAGTACAAACTCGCATGTTATA [XGTACX_site3320]", "gcPBM binding intensity (ln)": 6.35},
      {"sequence": "TACCTATACAGACACACACACACACGCCCACAAAAA [CACACA_site6375]", "gcPBM binding intensity (ln)": 6.97},
      {"sequence": "TTTTTATATTTATATAAATAAAAAAATAACAAAATG [XGTACX_negctrl_site231]", "gcPBM binding intensity (ln)": 6.69},
      {"sequence": "AATATTCTATATGATACATGCATGATGGAATAAAAA [TGCATGCA_site980]", "gcPBM binding intensity (ln)": 7.29},
      {"sequence": "AATGTAGACACATATGTACACACATATATATGTATA [CACACA_site9014]", "gcPBM binding intensity (ln)": 6.68},
      {"sequence": "TTTTGGTATACGTAATTATATAATATGTTAATCAAT [CACACA_negctrl_site645]", "gcPBM binding intensity (ln)": 6.44},
      {"sequence": "CCGCCATTGTACCATCCACACACATATATATATGTA [CACACA_site8866]", "gcPBM binding intensity (ln)": 7.38},
      {"sequence": "TATACATATATATATATATATAGATATATTCACGTG [XGTACX_negctrl_site265]", "gcPBM binding intensity (ln)": 7},
      {"sequence": "TTTTTAAAAAGTAACACACACTCTTATATATAATGA [CACACA_site3618]", "gcPBM binding intensity (ln)": 6.62},
      {"sequence": "AAAAAAAACAGACACACACACATAAATATAAATAAA [CACACA_site6214]", "gcPBM binding intensity (ln)": 6.62},
      {"sequence": "AAAATAATAATAAATGCATGTGTTGTTTACTAAGAA [TGCATGCA_site528]", "gcPBM binding intensity (ln)": 7.08},
      {"sequence": "GAATAATATGGACATACACACATATACATACCTATA [CACACA_site7075]", "gcPBM binding intensity (ln)": 6.91},
      {"sequence": "AAATATTATTGACGATGTACTTCTATTCATAAGTAT [XGTACX_site3964]", "gcPBM binding intensity (ln)": 5.94},
      {"sequence": "CTTTTTAATGAATACACACACACACCGATATATATA [CACACA_site5296]", "gcPBM binding intensity (ln)": 7.08},
      {"sequence": "TAAAACTTATACAAATGTACAAATATATATATATAT [XGTACX_site4661]", "gcPBM binding intensity (ln)": 9.19},
      {"sequence": "AAAATTTTTTTTGGCGCACACTAATAATAAAATATA [CACACA_site470]", "gcPBM binding intensity (ln)": 6.82},
      {"sequence": "TACTATTATTATTGCACACTTATTATCCCTCGGATA [CACACA_site162]", "gcPBM binding intensity (ln)": 10.3},
      {"sequence": "AATATATATTAATACACACACACATATATATATATA [CACACA_site3786]", "gcPBM binding intensity (ln)": 9.22},
      {"sequence": "TGATCATAGAAACACACACACAAAAAAAAAAAAAAA [CACACA_site4008]", "gcPBM binding intensity (ln)": 6.33},
      {"sequence": "AGACGATAAATCATTCATTCATTTACCATCCAAAAA [CACACA_negctrl_site802]", "gcPBM binding intensity (ln)": 5.75},
      {"sequence": "TTTTAATTAGTACAAACACACATATACAGACAAAAA [CACACA_site2563]", "gcPBM binding intensity (ln)": 7.13},
      {"sequence": "TAATATAGAAAATGCATACACACTTTATATATATAT [CACACA_site911]", "gcPBM binding intensity (ln)": 8.61},
      {"sequence": "AAAAAAAAAAGAAAAAGTACATACATACATATATAT [XGTACX_site6405]", "gcPBM binding intensity (ln)": 6.28},
      {"sequence": "TTATTATTAGAAAAAAGTACACATATAAAATGTTAC [XGTACX_site6426]", "gcPBM binding intensity (ln)": 6.12},
      {"sequence": "GTAAAATTAAAAATAACACACAAAAAAAAAAAAAAA [CACACA_site800]", "gcPBM binding intensity (ln)": 6.12},
      {"sequence": "GGATACATATGTAAAAGTACACATGAATATATACAT [XGTACX_site6469]", "gcPBM binding intensity (ln)": 6.57},
      {"sequence": "TATATATGTATGTATGTACACACAAAAAATGGAATA [CACACA_site9235]", "gcPBM binding intensity (ln)": 7.11},
      {"sequence": "AAGAGAGAGAAATATGCACACATAAGGGAAATAAAT [CACACA_site8300]", "gcPBM binding intensity (ln)": 9.33},
      {"sequence": "AATAAACATTATTTTCGTATTCCAATTCTTTTTTTT [XGTACX_negctrl_site374]", "gcPBM binding intensity (ln)": 6.24},
      {"sequence": "TTTTTTTAAAACAAAAAAAAAAAAAAAAAAAAAAAA [TGCATGCA_negctrl_site418]", "gcPBM binding intensity (ln)": 5.72},
      {"sequence": "TTCTTTTTTATTTATACATGCAATAAAAAATTGATT [TGCATGCA_site730]", "gcPBM binding intensity (ln)": 6.71},
      {"sequence": "ATAATATATATATTTTGTACACATGAAAAGGAGGAT [XGTACX_site5034]", "gcPBM binding intensity (ln)": 7.62},
      {"sequence": "AAAAAAAAGAAAAACACACACATATTTATTTATAAC [CACACA_site6600]", "gcPBM binding intensity (ln)": 6.45},
      {"sequence": "TAAATAAATTTATGTACACACACAAATAAATACATA [CACACA_site5107]", "gcPBM binding intensity (ln)": 6.49},
      {"sequence": "ATAATATATGTATGTATGCACTTTTATTATTTTTTT", "gcPBM binding intensity (ln)": 7.24},
      {"sequence": "TATATATATATATATAGTACACATATCACATAAATG [XGTACX_site6379]", "gcPBM binding intensity (ln)": 9.21},
      {"sequence": "TATATATTAAATTATAGTACACATTATATATAATTA [XGTACX_site4841]", "gcPBM binding intensity (ln)": 6.55},
      {"sequence": "AATGAAGACTTTTTTACACACTTCATATCTTATAGA [CACACA_site7046]", "gcPBM binding intensity (ln)": 6.72},
      {"sequence": "AGCCACAATACGGAAACACACAAGTTATTTTATCAT [CACACA_site2724]", "gcPBM binding intensity (ln)": 6.59},
      {"sequence": "AAATTTTTTCCGATTTGTACTTATATTTCTTTATTA [XGTACX_site1762]", "gcPBM binding intensity (ln)": 6.61}
    ]}
  ]
}
